Experimental data taken from PubChem BioAssay AID493208 (National Center for Advancing Translational Sciences (NCATS), 2011).
In all, about 44,000 compounds went through this assay and about 340 (0.77%) were called active. Another 5% or so got no clear call; they are omitted. Calls follow the shape of the dose curve; as a rule, active = well fitted inhibition curve with a large enough effect; inconclusive = small, poorly fitted or top-dose-only effect; inactive = flat fitted curve, though single readings scatter. Some of the results follow.

Assay: Acumen qHTS Assay for Inhibitors of the mTORC1 Signaling Pathway in MEF (Tsc2-/-, p53-/-) Cells: Sytravon;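 also: plate controls were DMSO for no effect and rapamycin for full effect; nearly all actives have a fitted effect of over 50% in size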
Conditions: phospho-rpS6 immunofluorescence/PI, 24 h; series mostly up to 38.3 µM; activity change, negative = inhibition: at the top concentration
Procedure, shortened: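 Tsc2-/-, p53-/- MEFs (empty-vector stable line) in DMEM + 10% FBS were treated with compounds 24 h at 37 degree Celsius, fixed, and immunostained for phospho-rpS6 (Alexa-488) with propidium iodide counterstain. Laser-scanning cytometry gave % positive cells, normalized against 7.5 nM rapamycin and DMSO.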

Activity change, negative = inhibition, inactive:
COc1cccc(CNC(=O)Cn2c(=O)cc(C)c3c(C)nn(C)c32)c1OC 2.66%, Cc1cccc(N(C)C(=O)C2CCC(CNS(=O)(=O)c3cccc4nsnc34)CC2)c1 (stereo unspecified) 0.714%, CCN(CC)C(=O)c1sc2c(c1C)c(=O)n(-c1ccccc1)c(=O)n2CC(=O)N(CC)c1cccc(C)c1 -1.85%, COc1cc(C(=O)Nc2cc(C)c(O)c(-c3nc4cc(Cl)ccc4o3)c2)cc(OC)c1OC -0.192%, CCOC(=O)CSc1nnc(-c2ccc(OC)cc2)o1 -0.82%, CCCOc1ccc(C(=O)N(Cc2ccc(Cl)cc2)Cc2ccco2)cc1 -2.7%, Cc1cn2c(=O)cc(COC(=O)COc3ccc(C)c(C)c3)nc2s1 -4.31%, COc1cc(NC(=O)CCS(=O)(=O)c2ccc(Br)cc2)cc(OC)c1 1.66%, Cc1ccc(CNC(=O)c2ccc3c(c2)NC(=O)C(CS(=O)(=O)Cc2cccc(C)c2)N3)cc1 (stereo unspecified) 0.365%, CCCCN(C)C(=O)CN1C(=O)c2cccnc2Oc2ccc(Cl)cc21 1.12%, CN(C(=O)CSc1nncn2c1cc1occc12)c1ccccc1 -11.3%, O=C(NCc1cccs1)c1ccc2c(c1)sc1nc(-c3ccccc3)cn12 -3.79%, CC(C)c1ccc(-c2noc(SCC(=O)N3CCN(c4ccccc4F)CC3)n2)cc1 4.07%, Cn1c(CNC(=O)CSc2nc(-c3ccccc3F)nc3cc(=O)[nH]n23)nc2ccccc21 3.54%, COc1ccc(Cn2ccn(CC(=O)Nc3cc(C)ccc3C)c(=O)c2=O)cc1 -9.52%, Cc1ccc(NC(=O)Cn2c(=O)ccc3cc(S(=O)(=O)N4CCCC4)ccc32)cc1C -0.351%, Cc1c(C(=O)N2CCC(C(=O)Nc3ccc(F)c(Cl)c3)CC2)sc2nc[nH]c(=O)c12 -7.27%, CCCOc1ccc(C2C(=O)N(C3CCCCCC3)CC(=O)N2C(C)C)cc1OC (stereo unspecified) 3.12%, Cc1cc2nn(-c3ccc(F)cc3)nc2cc1NC(=O)c1ccc(C(C)(C)C)cc1 -16.5%, COc1cc(CN(C(=O)c2ccccc2)c2ccccn2)cc(OC)c1OC 0.135%, COc1ccc(-c2cn3cccnc3n2)cc1NC(=O)c1ccccc1C(F)(F)F -1.96%, COc1ccc2c(c1)c(=O)c(C(=O)c1ccc(F)cc1)cn2CC(=O)Nc1ccc2c(c1)OCCO2 -10.6%, COc1cccc(CNC(=O)Nc2cn(CC(C)C)c(=O)c3ccccc23)c1 -4.34%, COc1ccc(-c2oc3ncn4nc(-c5ccccc5OC)nc4c3c2-c2ccc(OC)cc2)cc1 15.8%, Cc1nnc2c3ccccc3nc(Nc3ccc(F)cc3Cl)n12 2.25%, CCOC(=O)c1cc(-c2ccc(F)cc2)n(CCC(=O)Nc2nc3cc(C)c(C)cc3s2)c1C 0.0694%
